Structures are written as SMILES. Screen size: about 310,000 compounds; about 14,000 (4.5%) showed an effect of 50% or more. The effect is printed as a negative number. The list shows a part of the results.
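Also: peak tail current of the secondary pulse compared with the same well before compound.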

Chain of human ether-à-go-go-related gene (hERG) potassium channel (Q12809 whole entry, looked up): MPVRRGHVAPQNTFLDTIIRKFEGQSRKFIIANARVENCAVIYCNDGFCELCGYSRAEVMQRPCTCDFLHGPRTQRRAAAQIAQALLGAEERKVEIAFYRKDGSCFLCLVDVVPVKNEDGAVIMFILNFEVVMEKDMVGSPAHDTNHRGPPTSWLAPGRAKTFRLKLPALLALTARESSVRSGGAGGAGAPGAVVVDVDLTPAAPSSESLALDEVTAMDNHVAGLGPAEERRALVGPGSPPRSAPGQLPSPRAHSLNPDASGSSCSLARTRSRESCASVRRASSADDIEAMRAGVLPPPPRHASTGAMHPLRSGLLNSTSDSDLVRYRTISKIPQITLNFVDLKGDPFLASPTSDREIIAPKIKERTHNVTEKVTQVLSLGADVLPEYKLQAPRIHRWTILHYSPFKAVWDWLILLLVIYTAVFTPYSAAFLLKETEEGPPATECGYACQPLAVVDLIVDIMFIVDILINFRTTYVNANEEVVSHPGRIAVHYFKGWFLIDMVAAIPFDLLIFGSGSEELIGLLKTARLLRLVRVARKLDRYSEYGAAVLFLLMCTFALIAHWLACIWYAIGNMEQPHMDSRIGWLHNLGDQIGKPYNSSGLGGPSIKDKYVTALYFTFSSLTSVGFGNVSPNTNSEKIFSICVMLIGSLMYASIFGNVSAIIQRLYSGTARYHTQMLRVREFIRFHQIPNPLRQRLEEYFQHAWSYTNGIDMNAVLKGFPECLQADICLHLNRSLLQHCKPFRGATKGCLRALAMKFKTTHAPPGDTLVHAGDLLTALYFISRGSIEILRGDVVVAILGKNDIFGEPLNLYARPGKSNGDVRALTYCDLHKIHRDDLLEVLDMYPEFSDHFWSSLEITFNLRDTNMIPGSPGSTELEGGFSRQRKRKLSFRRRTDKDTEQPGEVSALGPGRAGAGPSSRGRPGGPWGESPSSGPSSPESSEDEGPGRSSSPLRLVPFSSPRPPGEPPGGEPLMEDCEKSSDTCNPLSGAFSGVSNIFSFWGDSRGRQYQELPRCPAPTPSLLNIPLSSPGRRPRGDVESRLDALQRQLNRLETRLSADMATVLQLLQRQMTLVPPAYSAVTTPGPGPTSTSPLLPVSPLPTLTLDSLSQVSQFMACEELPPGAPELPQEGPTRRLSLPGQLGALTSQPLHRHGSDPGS

This assay addresses human ether-à-go-go-related gene (hERG) potassium channel (human, UniProt Q12809). Kind of assay: primary screen, population patch clamp on CHO cells stably expressing hERG.
On to `Cn1cnc([N+](=O)[O-])c1Sc1ncn[nH]1`, for which the “hERG current change (%, negative = inhibition) at 10uM” value was determined as 21%. Then `CC1CCCC(C)N1C(=O)CSc1ncccn1` (stereo not drawn), with 19.6%; and `O=C1CN(C(=O)COC(=O)/C=C/c2ccc(S(=O)(=O)N3CCOCC3)cc2)c2ccccc2N1`, with 13.2%. Then `O=C(Nc1ccccc1C(=O)NC(Cc1c[nH]c2ccccc12)C(=O)O)c1ccco1` (stereo not drawn), with -6.2%. Consider `COC(=O)c1sc(NC(=S)NC(=O)c2ccccc2Cl)nc1C`, for which the “hERG current change (%, negative = inhibition) at 10uM” value is 11.1%. On to `COCC(=O)N1CCC(Oc2ccc(C(=O)NCc3cc(C)no3)cc2)CC1`, for which the “hERG current change (%, negative = inhibition) at 10uM” value stood at 1.51%. To `COc1ccc(OC)c(CC(NC(C)=O)C(=O)NC2CCN(c3c(Cc4ccccc4)c(C)nc4ncnn34)CC2)c1` (stereo not drawn) belongs -17%; to `CCOc1cc(CNCCc2ccc(S(N)(=O)=O)cc2)ccc1OCC(=O)NC1CCCCC1.Cl`, -36.3%. Then `O=C(CCCCCn1c(=S)[nH]c2ccc(N3CCOCC3)cc2c1=O)NCc1ccc(Cl)cc1`, with 15.7%.

In the case of `CCCC(=O)NNc1cc(=O)c2c(=O)n(C)c(=O)n(C)c2[nH]1`, the “hERG current change (%, negative = inhibition) at 10uM” value stood at 4.42%. Then `COCCOC(=O)c1[nH]c2c(c1C)C(=O)C(C(=O)OC)C(C)C2` (stereo not drawn), with -4.76%; and `O=C(CSc1nnc(NC(=O)c2ccco2)s1)Nc1ccc2c(c1)OCCO2`, with 24.7%. `CSc1ncccc1C(=O)OCC(=O)c1cc(C)n(CC2CCCO2)c1C` (stereo not drawn): the “hERG current change (%, negative = inhibition) at 10uM” value was -35.5%. Take `CC(=O)Oc1ccc(/C=N/NS(=O)(=O)c2ccc(C)cc2)c(OC(C)=O)c1`: the “hERG current change (%, negative = inhibition) at 10uM” value is listed as 9.58%. Then `O=C(NC1CCCC1)C(c1ccsc1)N(C(=O)Cc1cccs1)c1cccc(F)c1` (stereo not drawn), with 24.7%; and `Cc1[nH]c2ccccc2c1C(=O)C(=O)N1CCCc2ccccc21`, with -10.6%; and `CC(=O)N1CCc2cc(C(=O)CN3CCCCC3)ccc21`, with 6.69%. Then `COc1cccc(N(C(=O)C2CSC(=O)C2)C(C(=O)NC(C)(C)C)c2ccncc2)c1` (stereo not drawn), with 55.5%; and `O=C(CSCc1ccc(F)cc1)N1CCN(c2ccc(F)cc2)CC1`, with -41.8%; and `CCCc1nc(N)nc2c1C(=O)CC(C)(C)C2`, with -4.47%.

Turning to `COc1cc(C=O)cc(OC)c1OS(=O)(=O)c1ccc(NC(C)=O)cc1`, the “hERG current change (%, negative = inhibition) at 10uM” value is on record as 11.6%. To `O=C1NC(=S)N/C1=C/c1ccc2ccccc2c1` belongs 12.7%; to `CCCOc1ccc(/C=N/NC(=O)C(C)Sc2ccccn2)cc1OCC` (stereo not drawn), 14.9%.

Consider `COc1ccc(CNC(=O)CN(C)S(=O)(=O)c2ccc3c(c2)c(=O)n(C)c(=O)n3C)cc1`, for which the “hERG current change (%, negative = inhibition) at 10uM” value is -1.26%. Take `CC(Cc1ccccc1)NC(=O)CN1C(=O)c2ccccc2S1(=O)=O` (stereo not drawn): the “hERG current change (%, negative = inhibition) at 10uM” value is given as -1.55%.

Consider `COc1ccc(OCC#CCNC(C)(C)C)cc1.O=C(O)C(=O)O`, for which the “hERG current change (%, negative = inhibition) at 10uM” value turned out to be 4.38%. Consider `O=C(O)C(=O)O.OC(COCc1cccs1)CN1CCN(c2cccc(Cl)c2)CC1` (stereo not drawn), for which the “hERG current change (%, negative = inhibition) at 10uM” value is -63.8%. To `CCOC(=O)C1(C)NC(c2ccc(O)cc2)C2C(=O)N(c3ccccc3)C(=O)C21` (stereo not drawn) belongs 21.5%. Then `Cn1c(=O)n(C)c2cc(C(=O)Nc3ccc4c(c3)OCO4)ccc21`, with -3.82%; and `Cc1c(Cl)cccc1NC(=S)N1CCN(Cc2ccc3c(c2)OCO3)CC1`, with 21.5%; and `Cc1ccc(S(=O)(=O)N(C)C)cc1NC(=O)COC(=O)/C=C/c1cccs1`, with 3.08%. To `Cc1cnc(NC(=O)CN2CCN(c3ccccn3)CC2)s1` belongs -5.39%. `COc1ccc(/C=C2\SC(=O)N(CCNC(=O)C3CC4C=CC3C4)C2=O)cc1` (stereo not drawn): the “hERG current change (%, negative = inhibition) at 10uM” value was -6.14%.

As to `CC(C)CC1(C)NC(=O)N(CC(=O)Nc2ccc3c(c2)CCC3)C1=O` (stereo not drawn), the “hERG current change (%, negative = inhibition) at 10uM” value was 6.59%. Then `COc1ccc(CCNC(=O)CSc2nnc(C(C)N(C)C)n2Cc2ccccc2)cc1OC` (stereo not drawn), with 4.41%. To `CN(C)CC(C)(C)CNC(=O)C1CCN(CCCc2ccccc2)CC1.O=C(O)C(=O)O` belongs 12.5%.

On to `Cn1cnc([N+](=O)[O-])c1Cl`, for which the “hERG current change (%, negative = inhibition) at 10uM” value was found to be 6.55%.

As for `O=C(C1=C(O)C(=O)N(CCN2CCOCC2)C1c1ccc([N+](=O)[O-])cc1)c1cccs1` (stereo not drawn), the “hERG current change (%, negative = inhibition) at 10uM” value is on record as 26.2%. To `COC(=O)C1=C(c2ccc(OCc3ccccc3)cc2)C[C@@H]2CC[C@H]1N2C(=O)NCc1ccc(N(C)C)cc1` belongs -21.8%.

Turning to `O=[N+]([O-])c1ccn(-c2nc(-c3ccccc3)cc(C(F)(F)F)n2)n1`, the “hERG current change (%, negative = inhibition) at 10uM” value was -36.1%. `COc1ccc2cc3c(N)nn(C(=O)c4ccccc4Cl)c3nc2c1`: the “hERG current change (%, negative = inhibition) at 10uM” value worked out at 14.2%. To `COc1ccc(-c2csc(NC(=S)NC(=O)/C=C/c3ccco3)n2)cc1Br` belongs 32.6%; to `COc1cc2oc3ccccc3c2cc1N(CC(=O)N(C)C)S(=O)(=O)c1ccc(C)cc1`, 18%. Then `C[C@H]1CC[C@H]2C(=O)N[C@H](Cc3ccccc3)C(=O)N2[C@@H]1c1ccccc1`, with 23.7%; and `COc1ccc(-c2n[nH]c(=S)n2-c2cc(OC)ccc2OC)cc1`, with 4.92%. To `O=C(CSc1n[nH]c(=O)n1-c1ccccc1)Nc1ccccc1C(F)(F)F` belongs 18.5%; to `O=C(NCc1ccc(Cl)cc1)c1ccc(CNc2c(N3CCOCC3)c(=O)c2=O)cc1`, -0.41%.

In the case of `Cc1ccc(C(=O)Nc2ccc(N3CCOCC3)cc2N2CCOCC2)cc1`, the “hERG current change (%, negative = inhibition) at 10uM” value is listed as 3.11%. As for `CCC(C)NC(=O)c1ccc(NC(=O)C2CCCO2)cc1` (stereo not drawn), the “hERG current change (%, negative = inhibition) at 10uM” value stood at 7.95%.

For `Cc1ccc(CNC(=O)CCCn2nc(C)c3c(C)n(-c4ccccc4)nc3c2=O)cc1`, the “hERG current change (%, negative = inhibition) at 10uM” value is 5.48%.

For the compound `CC1(c2nnc(Cc3ccccc3)o2)CC(c2ccccc2Br)=NO1` (stereo not drawn), the “hERG current change (%, negative = inhibition) at 10uM” value is on record as -23.9%. To `CCCCC(=O)Nc1ccc2c(c1)nc(CCN1CCOCC1)n2C` belongs -0.213%.

Consider `Nc1ncnc2c1C1(CCCCC1)Cc1ccccc1-2`, for which the “hERG current change (%, negative = inhibition) at 10uM” value is given as -24.1%.

In the case of `COc1ccc(CCNC(=O)CCC(=O)n2ncc3ccc(Cl)cc32)cc1OC`, the “hERG current change (%, negative = inhibition) at 10uM” value is reported as -8.04%.
